Measured values taken from the antibiotic and cytotoxicity screens of Wong et al. (2023).
Some of the results follow.

Each molecule was assayed on HepG2 (assay: cytotoxicity call (relative viability < 0.9)). Conditions: 10 µM.
In the case of COc1ccc(NC(=O)N(C)C[C@@H]2Oc3c(NC(=O)CCCCCC(=O)Nc4ccccc4N)cccc3C(=O)N([C@@H](C)CO)C[C@H]2C)cc1, the cytotoxicity call is reported as “inactive”. For C[C@@H]1CCCCO[C@@H](CN(C)Cc2ccccc2)[C@@H](C)CN([C@H](C)CO)C(=O)c2cc(NC(=O)Nc3ccc(F)cc3)ccc2O1, the cytotoxicity call was “inactive”. O=C1C=C(O)C(=O)c2ccccc21 was tested, and the cytotoxicity call was “inactive”. O=C(C[C@H]1C=C[C@H](NS(=O)(=O)c2ccc(F)cc2)[C@@H](CO)O1)NCc1ccc(Cl)c(Cl)c1 was tested, and the cytotoxicity call was “inactive”. For COc1ccc(NC(=O)N(C)C[C@@H]2Oc3ccc(NC(=O)Cn4cnnn4)cc3CC(=O)N([C@@H](C)CO)C[C@H]2C)cc1, the cytotoxicity call was “inactive”. For CN1CCN(C(=O)C[C@H]2CC[C@H](NC(=O)c3ccc4c(c3)OCO4)[C@H](CO)O2)CC1, the cytotoxicity call was “inactive”. For CCCCOC(=O)CCCCCCC(=O)OCCCC, the cytotoxicity call was “inactive”. COc1ccc([Si](C)(C)[C@@H]2[C@@H](CC(=O)N(CCO)Cc3ccccc3)O[C@]3(C(=O)N(Cc4cccc(N5CCOC5=O)c4)c4ccccc43)[C@H]2C)cc1 was tested, and the cytotoxicity call was “inactive”. C/C=N/N(C)C=O was tested, and the cytotoxicity call was “inactive”. Cn1c(=O)c2c(nc(Cl)n2CCN2C(=O)CNC2=O)n(C)c1=O was tested, and the cytotoxicity call was “inactive”. For CO[C@H]1CN(C)C(=O)c2ccc(NS(C)(=O)=O)cc2OC[C@H](C)N(C(=O)CN(C)C)C[C@@H]1C, the cytotoxicity call was “inactive”. C=CCOC(=O)[C@H]1[C@@H]2C(=O)O[C@@H](c3ccccc3)[C@@H](c3ccccc3)N2[C@@H](c2ccc(OCCOC(=O)[C@H]3C[C@H]4C(=O)N[C@@H](CC(C)C)C(=O)N4[C@H]3c3ccc(O)cc3)cc2)[C@]12C(=O)Nc1ccccc12 was tested, and the cytotoxicity call was “inactive”. With COc1ccc(S(=O)(=O)Nc2ccc3c(c2)C(=O)N([C@@H](C)CO)C[C@H](C)[C@@H](CN(C)Cc2ccc(Cl)c(Cl)c2)OCCCC[C@@H](C)O3)cc1 the cytotoxicity call was “active”. In the case of C[C@@H]1CN([C@@H](C)CO)C(=O)Cc2cc(NC(=O)Nc3ccc(C(F)(F)F)cc3)ccc2O[C@@H]1CN(C)C(=O)Nc1ccc(C(F)(F)F)cc1, the cytotoxicity call is reported as “active”. C[C@@H](CCO)Nc1nc2c([nH]1)c(=O)n(C)c(=O)n2C was tested, and the cytotoxicity call was “inactive”. For C[C@H](CO)N1C[C@H](C)[C@H](CN(C)S(=O)(=O)c2ccc(F)cc2)OCCCC[C@H](C)Oc2ccc(NC(=O)Nc3cccc4ccccc34)cc2C1=O, the cytotoxicity call was “inactive”. In the case of C[C@H](CO)N1C[C@H](C)[C@@H](CN(C)Cc2ccncc2)Oc2ccc(NC(=O)c3ccncc3)cc2C1=O, the cytotoxicity call is reported as “inactive”. In the case of Cc1noc(C)c1NC(=O)Nc1ccc2c(c1)C(=O)N([C@@H](C)CO)C[C@H](C)[C@@H](CN(C)C(=O)Nc1ccc(F)cc1)OCCCC[C@@H](C)O2, the cytotoxicity call is reported as “inactive”. With CCC[C@H]1CCCCCCCCCC(=O)O[C@@H]2[C@@H](O1)O[C@H](C)[C@H](O)[C@@H]2O[C@H]1O[C@@H](CO)[C@@H](O[C@@H]2O[C@@H](C)[C@H](O)[C@@H](O)[C@H]2OC(=O)[C@@H](C)CC)[C@@H](O)[C@@H]1O the cytotoxicity call was “inactive”. For CCOC(=O)Cn1c(=O)c2c(OC)ccnc2n(C)c1=O, the cytotoxicity call was “inactive”. For C=C(C)C1CC=C(C(=O)O)CC1 (stereo not drawn), the cytotoxicity call was “inactive”. For O=C(O)CNC(=O)C(=O)O, the cytotoxicity call was “active”. With O=C1OCC=C[C@H]2O[C@@]34C=CCN(c5ccc(Cl)cc5)C(=O)[C@H]3N(CCCCCCO)C(=O)[C@@H]4[C@@H]12 the cytotoxicity call was “inactive”. With C[C@H](CO)N1C[C@H](C)[C@@H](CN(C)C(=O)CCCN(C)C)OCCCC[C@H](C)Oc2ccc(NC(=O)Nc3cccc4ccccc34)cc2C1=O the cytotoxicity call was “inactive”. For C[C@H](CO)N1C[C@H](C)[C@@H](CN(C)Cc2ccc(Oc3ccccc3)cc2)Oc2ccc(NC(=O)Cc3ccccc3)cc2C1=O, the cytotoxicity call was “inactive”. With C[C@H](CO)N1C[C@H](C)[C@H](CN(C)S(=O)(=O)c2cccs2)Oc2ccc(NS(=O)(=O)c3cccs3)cc2C1=O the cytotoxicity call was “inactive”. In the case of Cn1cnc(S(=O)(=O)N2C[C@H](O)COC[C@@H]3O[C@H](CC(=O)NCc4cc(F)cc(F)c4)CC[C@H]32)c1, the cytotoxicity call is reported as “inactive”. In the case of COc1ccc(CN(C)C[C@H]2Oc3c(NC(=O)c4cnccn4)cccc3C(=O)N([C@H](C)CO)C[C@@H]2C)cc1, the cytotoxicity call is reported as “inactive”.

The molecules below were run on S. aureus RN4220 (assay: growth inhibition call (relative growth <= 0.2)). Conditions: 50 µM.
In the case of CCCCCCCCc1ccc(-c2ccc(C(=O)O)cc2)cc1, the growth inhibition call is reported as “inactive”. O=C(C[C@@H]1CC[C@@H]2[C@H](COC[C@H](O)CN2C(=O)c2ccc3c(c2)OCO3)O1)NC1Cc2ccccc2C1 was tested, and the growth inhibition call was “inactive”. In the case of COc1ccc(CN(C)C[C@@H]2OCCCC[C@@H](C)Oc3ccc(NC(=O)Nc4ccc(OC)cc4)cc3C(=O)N([C@@H](C)CO)C[C@H]2C)cc1, the growth inhibition call is reported as “inactive”. For C[C@@H]1CN([C@H](C)CO)C(=O)c2cccc(NC(=O)C3CCOCC3)c2O[C@@H]1CN(C)Cc1ccc2c(c1)OCO2, the growth inhibition call was “inactive”. For COc1cccc(-c2ccc3c(c2)O[C@H](CN(C)C(=O)C2CCC2)[C@H](C)CN([C@@H](C)CO)S3(=O)=O)c1, the growth inhibition call was “inactive”. C[C@H]1CN([C@@H](C)CO)C(=O)c2cc(NC(=O)Cn3cnnn3)ccc2O[C@@H]1CN(C)Cc1ccncc1 was tested, and the growth inhibition call was “inactive”. With CCCCCCCCCCCCCCCCOc1nc2ccc(C)cc2c(=O)o1 the growth inhibition call was “inactive”. With COc1ccc(CC(N)C(=O)NC2C(CO)OC(n3cnc4c(N(C)C)ncnc43)C2O)cc1.Cl.Cl (stereo not drawn) the growth inhibition call was “inactive”. In the case of CN(C)C(=O)C[C@H]1CC[C@H]2[C@@H](COC[C@@H](O)CN2S(=O)(=O)c2ccccc2)O1, the growth inhibition call is reported as “inactive”. In the case of C[C@@H]1CN([C@H](C)CO)C(=O)Cc2cc(NS(=O)(=O)c3ccc(Cl)cc3)ccc2O[C@@H]1CN(C)Cc1ccc(Oc2ccccc2)cc1, the growth inhibition call is reported as “inactive”. With C[C@H](CO)N1C[C@H](C)[C@H](CN(C)Cc2ccc(Oc3ccccc3)cc2)Oc2ccc(NC(=O)Cc3cn(C)c4ccccc34)cc2C1=O the growth inhibition call was “inactive”. In the case of C[C@@H]1CN([C@H](C)CO)C(=O)c2cc(NC(=O)c3ccncc3)ccc2O[C@@H](C)CCCCO[C@H]1CN(C)C(=O)Nc1ccc2c(c1)OCO2, the growth inhibition call is reported as “inactive”. In the case of COc1ccc(NC(=O)N(C)C[C@@H]2Oc3c(NC(=O)CCCCCC(=O)Nc4ccccc4N)cccc3C(=O)N([C@@H](C)CO)C[C@H]2C)cc1, the growth inhibition call is reported as “inactive”. For C[C@@H]1CCCCO[C@@H](CN(C)Cc2ccccc2)[C@@H](C)CN([C@H](C)CO)C(=O)c2cc(NC(=O)Nc3ccc(F)cc3)ccc2O1, the growth inhibition call was “inactive”. With O=C1C=C(O)C(=O)c2ccccc21 the growth inhibition call was “inactive”. For O=C(C[C@H]1C=C[C@H](NS(=O)(=O)c2ccc(F)cc2)[C@@H](CO)O1)NCc1ccc(Cl)c(Cl)c1, the growth inhibition call was “inactive”. In the case of COc1ccc(NC(=O)N(C)C[C@@H]2Oc3ccc(NC(=O)Cn4cnnn4)cc3CC(=O)N([C@@H](C)CO)C[C@H]2C)cc1, the growth inhibition call is reported as “inactive”. CN1CCN(C(=O)C[C@H]2CC[C@H](NC(=O)c3ccc4c(c3)OCO4)[C@H](CO)O2)CC1 was tested, and the growth inhibition call was “inactive”. For CCCCOC(=O)CCCCCCC(=O)OCCCC, the growth inhibition call was “inactive”. In the case of COc1ccc([Si](C)(C)[C@@H]2[C@@H](CC(=O)N(CCO)Cc3ccccc3)O[C@]3(C(=O)N(Cc4cccc(N5CCOC5=O)c4)c4ccccc43)[C@H]2C)cc1, the growth inhibition call is reported as “inactive”. C/C=N/N(C)C=O was tested, and the growth inhibition call was “inactive”. For Cn1c(=O)c2c(nc(Cl)n2CCN2C(=O)CNC2=O)n(C)c1=O, the growth inhibition call was “inactive”. In the case of CO[C@H]1CN(C)C(=O)c2ccc(NS(C)(=O)=O)cc2OC[C@H](C)N(C(=O)CN(C)C)C[C@@H]1C, the growth inhibition call is reported as “inactive”. In the case of C=CCOC(=O)[C@H]1[C@@H]2C(=O)O[C@@H](c3ccccc3)[C@@H](c3ccccc3)N2[C@@H](c2ccc(OCCOC(=O)[C@H]3C[C@H]4C(=O)N[C@@H](CC(C)C)C(=O)N4[C@H]3c3ccc(O)cc3)cc2)[C@]12C(=O)Nc1ccccc12, the growth inhibition call is reported as “inactive”. In the case of COc1ccc(S(=O)(=O)Nc2ccc3c(c2)C(=O)N([C@@H](C)CO)C[C@H](C)[C@@H](CN(C)Cc2ccc(Cl)c(Cl)c2)OCCCC[C@@H](C)O3)cc1, the growth inhibition call is reported as “inactive”. In the case of C[C@@H]1CN([C@@H](C)CO)C(=O)Cc2cc(NC(=O)Nc3ccc(C(F)(F)F)cc3)ccc2O[C@@H]1CN(C)C(=O)Nc1ccc(C(F)(F)F)cc1, the growth inhibition call is reported as “inactive”. In the case of C[C@@H](CCO)Nc1nc2c([nH]1)c(=O)n(C)c(=O)n2C, the growth inhibition call is reported as “inactive”. For C[C@H](CO)N1C[C@H](C)[C@H](CN(C)S(=O)(=O)c2ccc(F)cc2)OCCCC[C@H](C)Oc2ccc(NC(=O)Nc3cccc4ccccc34)cc2C1=O, the growth inhibition call was “inactive”. For C[C@H](CO)N1C[C@H](C)[C@@H](CN(C)Cc2ccncc2)Oc2ccc(NC(=O)c3ccncc3)cc2C1=O, the growth inhibition call was “inactive”. Cc1noc(C)c1NC(=O)Nc1ccc2c(c1)C(=O)N([C@@H](C)CO)C[C@H](C)[C@@H](CN(C)C(=O)Nc1ccc(F)cc1)OCCCC[C@@H](C)O2 was tested, and the growth inhibition call was “inactive”. With CCC[C@H]1CCCCCCCCCC(=O)O[C@@H]2[C@@H](O1)O[C@H](C)[C@H](O)[C@@H]2O[C@H]1O[C@@H](CO)[C@@H](O[C@@H]2O[C@@H](C)[C@H](O)[C@@H](O)[C@H]2OC(=O)[C@@H](C)CC)[C@@H](O)[C@@H]1O the growth inhibition call was “inactive”. For CCOC(=O)Cn1c(=O)c2c(OC)ccnc2n(C)c1=O, the growth inhibition call was “inactive”. In the case of C=C(C)C1CC=C(C(=O)O)CC1 (stereo not drawn), the growth inhibition call is reported as “inactive”. In the case of O=C(O)CNC(=O)C(=O)O, the growth inhibition call is reported as “inactive”. O=C1OCC=C[C@H]2O[C@@]34C=CCN(c5ccc(Cl)cc5)C(=O)[C@H]3N(CCCCCCO)C(=O)[C@@H]4[C@@H]12 was tested, and the growth inhibition call was “inactive”. With C[C@H](CO)N1C[C@H](C)[C@@H](CN(C)C(=O)CCCN(C)C)OCCCC[C@H](C)Oc2ccc(NC(=O)Nc3cccc4ccccc34)cc2C1=O the growth inhibition call was “inactive”. With C[C@H](CO)N1C[C@H](C)[C@@H](CN(C)Cc2ccc(Oc3ccccc3)cc2)Oc2ccc(NC(=O)Cc3ccccc3)cc2C1=O the growth inhibition call was “inactive”. In the case of C[C@H](CO)N1C[C@H](C)[C@H](CN(C)S(=O)(=O)c2cccs2)Oc2ccc(NS(=O)(=O)c3cccs3)cc2C1=O, the growth inhibition call is reported as “inactive”. With Cn1cnc(S(=O)(=O)N2C[C@H](O)COC[C@@H]3O[C@H](CC(=O)NCc4cc(F)cc(F)c4)CC[C@H]32)c1 the growth inhibition call was “inactive”. In the case of COc1ccc(CN(C)C[C@H]2Oc3c(NC(=O)c4cnccn4)cccc3C(=O)N([C@H](C)CO)C[C@@H]2C)cc1, the growth inhibition call is reported as “inactive”.
